From article PMC10405735
Results are given in words; binding and its absence hold for the method and conditions named. Some binding calls cover weakened binding; strength is not graded here. For some of these results: Where a sequence is shown, tags or fusion partners need not be part of it.

Protein sequences, listed by entry. Tags and fused reporters are not part of them. Lines headed by an entry give the natural chain unless they say otherwise; changes in a name come on top. Residues count along the entry.
UniProt P25106: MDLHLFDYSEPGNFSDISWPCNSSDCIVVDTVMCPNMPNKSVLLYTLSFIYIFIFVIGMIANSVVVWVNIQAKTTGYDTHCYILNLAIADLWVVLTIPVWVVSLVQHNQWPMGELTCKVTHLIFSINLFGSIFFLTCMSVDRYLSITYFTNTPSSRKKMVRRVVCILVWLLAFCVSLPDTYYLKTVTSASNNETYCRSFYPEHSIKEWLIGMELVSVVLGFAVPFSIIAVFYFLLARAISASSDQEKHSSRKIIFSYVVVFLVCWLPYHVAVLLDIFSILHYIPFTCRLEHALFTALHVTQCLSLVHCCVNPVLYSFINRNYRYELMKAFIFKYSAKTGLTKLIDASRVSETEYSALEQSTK
UniProt O15218: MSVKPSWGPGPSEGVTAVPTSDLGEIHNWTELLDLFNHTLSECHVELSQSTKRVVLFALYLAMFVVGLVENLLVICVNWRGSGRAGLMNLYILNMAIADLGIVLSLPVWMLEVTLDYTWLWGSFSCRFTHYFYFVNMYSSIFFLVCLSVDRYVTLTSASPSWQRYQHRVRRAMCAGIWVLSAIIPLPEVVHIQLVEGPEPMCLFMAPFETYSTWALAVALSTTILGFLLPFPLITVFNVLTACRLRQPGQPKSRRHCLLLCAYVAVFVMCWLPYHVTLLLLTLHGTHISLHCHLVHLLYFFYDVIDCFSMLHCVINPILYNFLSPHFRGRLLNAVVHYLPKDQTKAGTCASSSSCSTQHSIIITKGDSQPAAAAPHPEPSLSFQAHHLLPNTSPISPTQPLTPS
UniProt Q9JIL2, residues 17-130: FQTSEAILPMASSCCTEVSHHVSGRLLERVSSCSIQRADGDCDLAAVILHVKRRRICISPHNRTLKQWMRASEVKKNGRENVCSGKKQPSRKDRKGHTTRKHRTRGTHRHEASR

How the values were obtained:
[1] = target: T1, ACKR2 (T2A GFP) in 300.19 pre-B cells (UniProt O00590); experiment: flow cytometry on cells; uptake: 300.19 pre-B cells stably expressing the receptor (T2A GFP), together with parental cells, incubated with 20, 100 or 200 nM fluorescently labelled chemokine at 37°C for 45 min; MFI of parental cells subtracted; only the binder purified
T1 sequence: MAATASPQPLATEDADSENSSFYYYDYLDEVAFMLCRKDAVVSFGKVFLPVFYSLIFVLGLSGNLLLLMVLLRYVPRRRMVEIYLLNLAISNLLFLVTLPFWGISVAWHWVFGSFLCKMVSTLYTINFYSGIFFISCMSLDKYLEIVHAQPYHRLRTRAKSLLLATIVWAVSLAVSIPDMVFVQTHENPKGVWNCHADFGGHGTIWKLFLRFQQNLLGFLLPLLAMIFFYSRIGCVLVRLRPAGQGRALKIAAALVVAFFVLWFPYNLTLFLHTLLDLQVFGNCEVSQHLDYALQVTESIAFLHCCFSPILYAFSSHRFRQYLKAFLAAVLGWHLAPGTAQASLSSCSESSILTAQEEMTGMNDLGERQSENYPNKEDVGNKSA

[2] = target: T2, murine GPR182 (mGPR182), expressed from mGPR182 T2A GFP in 300.19 pre-B cells (mouse) (UniProt P43142); experiment: as above
T2 sequence: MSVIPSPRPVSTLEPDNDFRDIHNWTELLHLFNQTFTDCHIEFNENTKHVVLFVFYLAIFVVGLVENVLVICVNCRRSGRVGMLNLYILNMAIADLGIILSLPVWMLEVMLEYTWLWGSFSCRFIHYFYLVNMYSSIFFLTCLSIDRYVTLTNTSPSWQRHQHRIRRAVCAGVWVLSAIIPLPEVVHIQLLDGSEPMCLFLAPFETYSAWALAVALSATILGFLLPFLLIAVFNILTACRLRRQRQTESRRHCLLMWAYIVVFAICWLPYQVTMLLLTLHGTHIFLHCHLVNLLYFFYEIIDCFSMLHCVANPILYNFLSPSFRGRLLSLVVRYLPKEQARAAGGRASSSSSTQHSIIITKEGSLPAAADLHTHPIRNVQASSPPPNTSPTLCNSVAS

[3] = target: T3, ACKR1 (T2A GFP) in 300.19 pre-B cells (UniProt Q16570); experiment: as above
T3 sequence: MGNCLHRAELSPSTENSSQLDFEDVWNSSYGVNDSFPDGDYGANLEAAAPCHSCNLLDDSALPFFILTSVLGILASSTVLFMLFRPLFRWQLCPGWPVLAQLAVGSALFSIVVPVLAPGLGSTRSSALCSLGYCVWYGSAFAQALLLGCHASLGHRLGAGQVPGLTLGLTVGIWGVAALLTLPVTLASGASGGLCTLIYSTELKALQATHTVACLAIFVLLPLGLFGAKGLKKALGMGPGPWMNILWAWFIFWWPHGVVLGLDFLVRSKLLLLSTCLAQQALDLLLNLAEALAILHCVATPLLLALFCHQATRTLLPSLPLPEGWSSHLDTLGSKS

[4] = target: T4, hACKR4 (T2A GFP) in 300.19 pre-B cells (human) (UniProt Q9NPB9); experiment: as above
T4 sequence: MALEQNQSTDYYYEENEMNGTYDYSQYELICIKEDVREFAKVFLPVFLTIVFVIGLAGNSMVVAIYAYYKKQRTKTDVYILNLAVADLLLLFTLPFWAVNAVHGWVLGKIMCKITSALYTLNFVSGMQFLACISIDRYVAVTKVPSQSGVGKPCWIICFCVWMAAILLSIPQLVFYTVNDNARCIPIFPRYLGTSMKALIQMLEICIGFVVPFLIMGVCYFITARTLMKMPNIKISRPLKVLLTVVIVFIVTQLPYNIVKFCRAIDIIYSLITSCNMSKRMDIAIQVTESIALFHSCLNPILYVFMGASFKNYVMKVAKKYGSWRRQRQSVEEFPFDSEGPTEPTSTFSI

[5] = target: hACKR3 (T2A GFP) in 300.19 pre-B cells (human) (UniProt P25106); experiment: as above
[6] = target: human GPR182 (hGPR182), expressed from hGPR182 T2A GFP in 300.19 pre-B cells (human) (UniProt O15218); experiment: as above
[7] = target: T2, murine GPR182 (mGPR182), expressed from mGPR182 T2A GFP in 300.19 pre-B cells (mouse); experiment: flow cytometry on cells; binding: 300.19 pre-B cells stably expressing the receptor (T2A GFP) incubated with 100 or 200 nM fluorescently labelled chemokine at 4°C for 45 min; MFI of parental cells subtracted; only the binder purified
[8] = target: T4, hACKR4 (T2A GFP) in 300.19 pre-B cells (human); experiment: as above
[9] = target: hACKR3 (T2A GFP) in 300.19 pre-B cells (human) (UniProt P25106); experiment: as above
[10] = target: human GPR182 (hGPR182), expressed from hGPR182 T2A GFP in 300.19 pre-B cells (human) (UniProt O15218); experiment: as above

mCCL28, fluorescently labelled (from UniProt Q9JIL2 17-130) (ligand)
binding [1]: no binding (tested: 100 nM)
binding [2]: binds
binding [3]: no binding (tested: 100 nM)
binding [4]: no binding (tested: 100 nM)
binding [5]: no binding (tested: 100 nM)
binding [6]: binds
binding [7]: binds
binding [8]: no binding (tested: 100 nM)
binding [9]: no binding (tested: 100 nM)
binding [10]: binds
